Some of the results follow. One pool of 16,384 single-stranded DNAs met each Rep nickase domain in vitro for 1 h at 37 °C with 3 µM enzyme; only the middle of the 90-letter strands is printed. The score is log2 (uncut reads / reads without enzyme); more negative means more cut, near 0 not cut, and no call is made. Counts are relative to all reads; uncut strands gain when others are lost, and binding without cutting may add a little.

The test system of this experiment is T1, Rep nickase domain of tomato golden mosaic virus.
T1 sequence (protein, residues 1-124, tag omitted): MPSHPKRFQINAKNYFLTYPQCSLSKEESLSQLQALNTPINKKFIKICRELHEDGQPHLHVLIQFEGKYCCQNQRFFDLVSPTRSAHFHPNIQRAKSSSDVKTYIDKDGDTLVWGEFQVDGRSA
The experiment can be described thus: uncleaved DNA left, log2 of reads against the no-enzyme library (log2 ratio); higher = less cleavage (more negative = more Rep cleavage of the k-mer); sequences stand for … in CTCGTCCG…ACCGGAGA
The method, then:
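A pool of 90-nt single-stranded DNAs with seven random bases just before the constant AC of the nick site (name = the seven bases) was cut by 3 µM recombinant His6-SUMO-tagged Rep nickase domain (300 nM DNA, 50 mM HEPES pH 8.0, 50 mM NaCl, 1 mM MnCl2, 1 h, 37 °C, three replicates). Uncut DNA was amplified and sequenced.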
Regarding AGCGGAA, the “uncleaved DNA left (log2)” value was 0.161. As to GATTGTC, the “uncleaved DNA left (log2)” value stood at 0.0315. As for CCCTTAT, the “uncleaved DNA left (log2)” value amounted to 0.092. Regarding AACGCTG, the “uncleaved DNA left (log2)” value turned out to be 0.145.

Regarding AGTACCT, the “uncleaved DNA left (log2)” value was -0.104. For the sequence TGACGTC, the “uncleaved DNA left (log2)” value is 0.0015. Under CTTATAA stands 0.131; under CGCCCCT, -0.209; under GGGTCAC, 0.0319. GGTATGA: the “uncleaved DNA left (log2)” value worked out at 0.0968.

TCTAGTA: the “uncleaved DNA left (log2)” value was determined as 0.00317.

Consider CGCCTGC, for which the “uncleaved DNA left (log2)” value is -0.151. For the sequence CTACAAA, the “uncleaved DNA left (log2)” value is 0.0117.

For CCCAGTG, the “uncleaved DNA left (log2)” value came out at 0.0502. As for AGAAGTG, the “uncleaved DNA left (log2)” value stood at 0.136. For CTACCCC, the “uncleaved DNA left (log2)” value was -0.0928. With GTTGCGC, the “uncleaved DNA left (log2)” value was determined as 0.0101. Regarding GAAACGC, the “uncleaved DNA left (log2)” value stood at 0.13. For the sequence AAAAATG, the “uncleaved DNA left (log2)” value was found to be 0.162. On to GACAGGC, for which the “uncleaved DNA left (log2)” value turned out to be 0.037. Then AGGATAG, with 0.11; and CGAGCGT, with 0.155; and AGCATTA, with 0.0209.

Turning to ATTAATT, the “uncleaved DNA left (log2)” value is 0.0497.

Take CAGGATC: the “uncleaved DNA left (log2)” value stood at 0.255. For the sequence TACAGAC, the “uncleaved DNA left (log2)” value is -0.0365. Under TTGGTAT stands 0.0807. In the case of CCTTGGA, the “uncleaved DNA left (log2)” value is -0.00678. As to GACGGCC, the “uncleaved DNA left (log2)” value worked out at 0.0349.

Regarding TGGCTTA, the “uncleaved DNA left (log2)” value worked out at 0.206. Under CCGGCCC stands -0.06. As to CACCCGC, the “uncleaved DNA left (log2)” value was -0.193. As to GAGCGGG, the “uncleaved DNA left (log2)” value was found to be 0.141.

TTCTACG: the “uncleaved DNA left (log2)” value was -0.0262.

For CTACGTC, the “uncleaved DNA left (log2)” value is -0.0563.

With CGCGCCT, the “uncleaved DNA left (log2)” value was -0.178.

Take ATCTATG: the “uncleaved DNA left (log2)” value was found to be 0.0638. Under TGATCAA stands 0.0593; under GCCGATC, 0.0631. Regarding ATAGACG, the “uncleaved DNA left (log2)” value turned out to be 0.0221.
